From the RNAGym collection of RNA variant scans (doi:10.1073/pnas.2313332121) come the findings set out here.

Variants at the floor of the assay are shown more often than the library holds them.

B1: TPR 5TU (parent)
chain: GGAUCUUCUCGAUCUAACAAAAAAGACAAAUCUGCCACAAAGCUUGAGAGCAUCUUCGGAUGCAGAGGCGGCAGCCUUCGGUGGCGCGAUAGCGCCAACGUUCUCAACUAUGACACGCAAAACGCGUGCUCCGUUGAAUGGAGUUUAUCAUG

This data set covers variants of B1. The experiment in a line: polymerase ribozyme fitness, log enrichment relative to wild type (log ratio); higher = more active; in vitro selection for triplet polymerase activity. In outline:
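Only genotypes with ≥10 input reads and ≥1 read per output were kept after Illumina sequencing of input and output libraries. These libraries were PCR-built, transcribed mutants of each subunit of a heterodimeric triplet polymerase ribozyme, each put through one triplicate in vitro selection round with frozen incubation at −7 °C, gel excision of extended constructs, streptavidin-bead capture and RT-PCR. Fitness is a logarithmic ratio of genotype enrichment to wild-type enrichment, from inverse-variance-weighted replicate averages, with the logarithm in base 2.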
Regarding GGAUCUUCUCGAUCUAACAAAAAAGACAAAUCUGCCACAAAGCUUGAGAGCAUCUUAGGAUGCAGAGGCGGCAGCCUUCGGUGGCGGGAUAGCGCCAACGUUCUCAACUAUGACACGCAAAACGCGUGCUCCGUUGAAUGGAGUUUAUCAUG, the “polymerase ribozyme fitness (log ratio)” value is -3.18. In the case of GGAUCUUCUCGAUCUAACAAAAAAGACAAAUCUGCCACAAAGCUUGAGAGCAUCUUAGGAUGCAGAGGCGGCAGCCUUCGGUGGCGCGAUAGCGCCAACGUUCUCACCUAUGACACGCAAAACGAGUGCUCCAUUAAAUGGAGUUUAUCAAG, the “polymerase ribozyme fitness (log ratio)” value was at most -4.2.

On to GGAUCUUCUCGAUCUAACAAAAAAGACAAAUCUGCCACAAAGCUUGAGAGCAUCUUAGGAUGCCGAGGCGGCAGCCUUCGGUGGCGCGAUAGCGCCAACGUUCUCAACUAUGACACGCAAAACGCGUGGUCCGUUGAAUGGAGUUUAUCAUG, for which the “polymerase ribozyme fitness (log ratio)” value was at most -4.2. With GGAUCUUCUCGAUCUAACAAAAAAGACAAAUCUGCCACAAAGCUUGAGAGCAUCUUAGGCUGCAGAGGCGGUAGCCUUCGGUGGCGCGAUAGCGCCAACGUUCUCAACUAUGACACGCAAAACGCGUGCUCCGUUGAAUUGAGUUUAUCGUG, the “polymerase ribozyme fitness (log ratio)” value is at most -4.2. For the variant GGAUCUUCUCGAUCUAACAAAAAAGACAAAUCUGCCACAAAGCUUGAGAGCAUCUGCGGAUGCAGAGGCGGCAGCCUUCGGUGUCGCGAUAGCGCCAACGUUCUCAACUAUGACACGCAAAACGCGUGCUCCGUUGAAUGGAGUUUAUCAUG, the “polymerase ribozyme fitness (log ratio)” value is -2.16. With GGAUCUUCUCGAUCUAACAAAAAAGACAAAUCUGCCACAAAGCUUGAGAGCAUCUGCGGAUGCAGAGGCGGCAGCCUUCGGUGACGCGAUAGCGCCAACGUUCUCAACUAUGACACGCAAAACGCGUGCUCCGUUGAAUGGAGUUUAUCAUG, the “polymerase ribozyme fitness (log ratio)” value was -3.48. Regarding GGAUCUUCUCGAUCUAACAAAAAAGACAAAUCUGCCACAAAGCUUGAGAGCAUCUUAGGAUGCAGAGGCGGCAGCCUUCGGUGGGGCGAUAGCGCCAACGUUCUAAACUAUGACACGCAAAACGCGUGCUCCGUAGAAUGGAGUUUAUCAAG, the “polymerase ribozyme fitness (log ratio)” value was at most -4.2. Regarding GGAUCUUCUCGAUCUAACAAAAAAGACAAAUCUGCCACAAAGCUUGAGAGCAUCUUAGGAUGCAGAGGCGGCAGACUUCGGUAGCGCGAUAGCGCCAACGUUCUUAACUAUGACACGCAAACCGCGUGCUCCGUUGAAUGGAGUUUAUCAUG, the “polymerase ribozyme fitness (log ratio)” value was at most -4.2. Next, GGAUCUUCUCGAUCUAACAAAAAAGACAAAUCUGCCACAAAGCUUGAGAGCAUCUUAGGAUGCAGAGGCGGCAGCGUUCGGUGGCGCGAUAGCGCCAACGUUCUCAACUAUGGCACGCAAAACGCAUGAUCCGGUGAAUGGAGUUUAUCAUG: at most -4.2; GGAUCUUCUCGAUCUAACAAAAAAGACAAAUCUGCCACAAAGCUUGAGAGCAUCUUAGGAUGCAGAGGCGGGAGCCAUCGGUGGCGAGAUAGCGCCAACGUUCUCAACUAUGACACGCAAAACGCGAGCUCCGUUAAAUGGAGUUUAUCAUG: at most -4.2; GGAUCUUCUCGAUCUAACAAAAAAGACAAAUCUGCCACAAAGCUUGAGAGCAUCUUAGGAUGCAGAGGCGGCAGCCUUCGGUGGGGCGCUAGCGCCAACGUUCUCAACUAUGACACGCAAAACGCGUGCUCCCUUGAAUGGAGUUUAUCAUG: at most -4.2.

Regarding GGAUCUUCUCGAUCUAACAAAAAAGACAAAUCUGCCACAAAGCUUGAGAGCAUCUGCGGAUGCAGAGGCGGCAGCCUUCGGUGGCGCGAUAGCGCCAACUUUCUCAACUAUGACACGCAAAACGCGUGCUCCGAUGAAUGGAGUUAAACAUG, the “polymerase ribozyme fitness (log ratio)” value was at most -4.2. With GGAUCUUCUCGAUCUAACAAAAAAGACAAAUCUGCCACAAAGCUUGAGAGCAUCUUAGGAUGCAGAGGCGGCAGCCUUCGGUGGGGCAAUAGCGCCAACGUUCUCAACUAUGACACGCAAAACGCGUGCUCCGUUGAAUCUAGUUUAUCAUG, the “polymerase ribozyme fitness (log ratio)” value is at most -4.2. Regarding GGAUCUUCUCGAUCUAACAAAAAAGACAAAUCUGCCACAAAGCUUGAGAGCAUCUUAGGAUGCAGAGGCGGCAGCCUUCGGUGGCGCGCUAGCGCCAACGUUAUCAUCUAUGACACGCAAAACGCGUUCUCCGUUGAAUGGAGUUUAUCAUG, the “polymerase ribozyme fitness (log ratio)” value was at most -4.2. Regarding GGAUCUUCUCGAUCUAACAAAAAAGACAAAUCUGCCACAAAGCUUGAGAGCAUCUUAGGAUGCAGAGGCGGCAGCCUUCGGUGGCGCGAUAGCGCCAACGUUCUCAACUAUGUCACGCAAAACGCGUGCUCCGUUGAAUGGAGUUUAUCAUG, the “polymerase ribozyme fitness (log ratio)” value was -1.86. On to GGAUCUUCUCGAUCUAACAAAAAAGACAAAUCUGCCACAAAGCUUGAGAGCAUCUUAGGAUGCAGAGGCGGCAGCGUUCGGUGGCGCGAUAGCGCCAACGUUCUCAACUAUGACGCGCAAAACGCGUGCUCCGUUGAGUGGAGUUUAUCAUG, for which the “polymerase ribozyme fitness (log ratio)” value was at most -4.2. Regarding GGAUCUUCUCGAUCUAACAAAAAAGACAAAUCUGCCACAAAGCUUGAGAGCAUCUUAGGAUGUAGAGGCGGCAGCCUUCGGUGGCGCGAUAGGGCCAACGUUCUCAACUAUGACAGGCAAAACGCGAGCUCCGUUGAAUGGAGUUUAUCAUG, the “polymerase ribozyme fitness (log ratio)” value is at most -4.2. Next, GGAUCUUCUCGAUCUAACAAAAAAGACAAAUCUGCCACAAAGCUUGAGAGCAUCUGCGGAUGCAGAGGCGGCAGCCUCCGGUGGCGCGAUAGCGCCAAGGUUCUCAACUAUGACACGCAAAACCUGUGCUCCGUUGAAUGGAGUUUAUCAUG: -2.94.

Regarding GGAUCUUCUCGAUCUAACAAAAAAGACAAAUCUGCCACAAAGCUUGAGAGCAUCUUAGGAUGCAGAGGCGGCAGGCUUCGGUGGCGCGAUAGCGCCAACGUUCUCAACUAUGACACGCAAAACGCGUGCUCCGUUGAAUGGAGUUUAUCAUG, the “polymerase ribozyme fitness (log ratio)” value is at most -4.2.
